Our source for the enrichment values is the supplement of paper PMC12230231.

± gives the standard deviation of the averaged measurements. Restriction of a single-cycle SIVsab GFP reporter by TRIM5α v1-loop variants in CRFK cells. Human variants: read share among cells still uninfected after two challenges over input, higher = gained restriction. Rhesus variants: share among infected cells over input, higher = lost restriction. Reporter dose not given per row. No active / inactive call per row; the paper calls a change when both replicates lie above its controls (mean + 2 SD of stop or wild-type variants, or the top frameshift score). Residues outside the varied loop are taken from Swiss-Prot. The paper reads the human single-substitution scores as noise; they and the rhesus combinations repeat poorly (rank correlation 0.3 to 0.4), indel scores repeat only for the top variants, rhesus substitutions well (0.9).

This data set deals with SIVsab (simian immunodeficiency virus of sabaeus monkeys), single-cycle GFP reporter, in CRFK cells. Briefly: enrichment among infected cells over input (fold); higher = weaker restriction. The conditions noted are these: library: human / rhesus combinations. The method, then:
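Pools of CRFK cells expressing variants of the TRIM5α v1 loop were challenged with the single-cycle reporter, sorted by GFP and sequenced; mean of two replicates.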
As for “MASGILLNVKEEVTCPICLELLTEPLSLHCGHSFCQACITANHKKSMLYKEGERSCPVCRISYQPENIQPNRHVANIVEKLREVKLSPEEGQKVDHCARHGEKLLLFCQEDSKVICWLCERSQEHRGHHTFLMEEVAQEYHVKLQTALEMLRQKQQEAEKLEADIREEKASWKIQIDYDKTNVSADFEQLREILDWEESNELQNLEKEEEDILKSLTKSETEMVQQTQYMRELISELEHRLQGSMMDLLQGVDGIIKRIENMTLKKPKTFHKNQRRVFRAPDLKGMLDMFRELTDARRYWVDVTLAPNNISHAVIAEDKRQVSSRNPQIMYGARGTRFTFPTLVNFNYCTGVLGSQSITSGKHYWEVDVSKKSAWILGVCAGFQSDAMYNIEQNENYQPKYGYWVIGLQEGVKYSVFQDGSSHTPFAPFIVPLSVIICPDRVGVFVDYEACTVSFFNITNHGFLIYKFSQCSFSKPVFPYLNPRKCTVPMTLCSPSS [rhesus TRIM5α, 332-344 = GARGTRFTFPTLV]”, the enrichment was 1.377 ± 0.013. Turning to “MASGILLNVKEEVTCPICLELLTEPLSLHCGHSFCQACITANHKKSMLYKEGERSCPVCRISYQPENIQPNRHVANIVEKLREVKLSPEEGQKVDHCARHGEKLLLFCQEDSKVICWLCERSQEHRGHHTFLMEEVAQEYHVKLQTALEMLRQKQQEAEKLEADIREEKASWKIQIDYDKTNVSADFEQLREILDWEESNELQNLEKEEEDILKSLTKSETEMVQQTQYMRELISELEHRLQGSMMDLLQGVDGIIKRIENMTLKKPKTFHKNQRRVFRAPDLKGMLDMFRELTDARRYWVDVTLAPNNISHAVIAEDKRQVSSRNPQIMYGARGTRFTFQSFTNFNYCTGVLGSQSITSGKHYWEVDVSKKSAWILGVCAGFQSDAMYNIEQNENYQPKYGYWVIGLQEGVKYSVFQDGSSHTPFAPFIVPLSVIICPDRVGVFVDYEACTVSFFNITNHGFLIYKFSQCSFSKPVFPYLNPRKCTVPMTLCSPSS [rhesus TRIM5α, 332-344 = GARGTRFTFQSFT]”, the enrichment stood at 1.39 ± 0.48. Next, “MASGILLNVKEEVTCPICLELLTEPLSLHCGHSFCQACITANHKKSMLYKEGERSCPVCRISYQPENIQPNRHVANIVEKLREVKLSPEEGQKVDHCARHGEKLLLFCQEDSKVICWLCERSQEHRGHHTFLMEEVAQEYHVKLQTALEMLRQKQQEAEKLEADIREEKASWKIQIDYDKTNVSADFEQLREILDWEESNELQNLEKEEEDILKSLTKSETEMVQQTQYMRELISELEHRLQGSMMDLLQGVDGIIKRIENMTLKKPKTFHKNQRRVFRAPDLKGMLDMFRELTDARRYWVDVTLAPNNISHAVIAEDKRQVSSRNPQIMYGARGTRFTFQSFVNFNYCTGVLGSQSITSGKHYWEVDVSKKSAWILGVCAGFQSDAMYNIEQNENYQPKYGYWVIGLQEGVKYSVFQDGSSHTPFAPFIVPLSVIICPDRVGVFVDYEACTVSFFNITNHGFLIYKFSQCSFSKPVFPYLNPRKCTVPMTLCSPSS [rhesus TRIM5α, 332-344 = GARGTRFTFQSFV]”: 0.807 ± 0.2; “MASGILLNVKEEVTCPICLELLTEPLSLHCGHSFCQACITANHKKSMLYKEGERSCPVCRISYQPENIQPNRHVANIVEKLREVKLSPEEGQKVDHCARHGEKLLLFCQEDSKVICWLCERSQEHRGHHTFLMEEVAQEYHVKLQTALEMLRQKQQEAEKLEADIREEKASWKIQIDYDKTNVSADFEQLREILDWEESNELQNLEKEEEDILKSLTKSETEMVQQTQYMRELISELEHRLQGSMMDLLQGVDGIIKRIENMTLKKPKTFHKNQRRVFRAPDLKGMLDMFRELTDARRYWVDVTLAPNNISHAVIAEDKRQVSSRNPQIMYGARGTRFTFQSLTNFNYCTGVLGSQSITSGKHYWEVDVSKKSAWILGVCAGFQSDAMYNIEQNENYQPKYGYWVIGLQEGVKYSVFQDGSSHTPFAPFIVPLSVIICPDRVGVFVDYEACTVSFFNITNHGFLIYKFSQCSFSKPVFPYLNPRKCTVPMTLCSPSS [rhesus TRIM5α, 332-344 = GARGTRFTFQSLT]”: 1.4 ± 0.54. As for “MASGILLNVKEEVTCPICLELLTEPLSLHCGHSFCQACITANHKKSMLYKEGERSCPVCRISYQPENIQPNRHVANIVEKLREVKLSPEEGQKVDHCARHGEKLLLFCQEDSKVICWLCERSQEHRGHHTFLMEEVAQEYHVKLQTALEMLRQKQQEAEKLEADIREEKASWKIQIDYDKTNVSADFEQLREILDWEESNELQNLEKEEEDILKSLTKSETEMVQQTQYMRELISELEHRLQGSMMDLLQGVDGIIKRIENMTLKKPKTFHKNQRRVFRAPDLKGMLDMFRELTDARRYWVDVTLAPNNISHAVIAEDKRQVSSRNPQIMYGARGTRFTFQSLVNFNYCTGVLGSQSITSGKHYWEVDVSKKSAWILGVCAGFQSDAMYNIEQNENYQPKYGYWVIGLQEGVKYSVFQDGSSHTPFAPFIVPLSVIICPDRVGVFVDYEACTVSFFNITNHGFLIYKFSQCSFSKPVFPYLNPRKCTVPMTLCSPSS [rhesus TRIM5α, 332-344 = GARGTRFTFQSLV]”, the enrichment turned out to be 0.932 ± 0.2. Next, “MASGILLNVKEEVTCPICLELLTEPLSLHCGHSFCQACITANHKKSMLYKEGERSCPVCRISYQPENIQPNRHVANIVEKLREVKLSPEEGQKVDHCARHGEKLLLFCQEDSKVICWLCERSQEHRGHHTFLMEEVAQEYHVKLQTALEMLRQKQQEAEKLEADIREEKASWKIQIDYDKTNVSADFEQLREILDWEESNELQNLEKEEEDILKSLTKSETEMVQQTQYMRELISELEHRLQGSMMDLLQGVDGIIKRIENMTLKKPKTFHKNQRRVFRAPDLKGMLDMFRELTDARRYWVDVTLAPNNISHAVIAEDKRQVSSRNPQIMYGARGTRFTFQTFTNFNYCTGVLGSQSITSGKHYWEVDVSKKSAWILGVCAGFQSDAMYNIEQNENYQPKYGYWVIGLQEGVKYSVFQDGSSHTPFAPFIVPLSVIICPDRVGVFVDYEACTVSFFNITNHGFLIYKFSQCSFSKPVFPYLNPRKCTVPMTLCSPSS [rhesus TRIM5α, 332-344 = GARGTRFTFQTFT]”: 1.31 ± 0.2; “MASGILLNVKEEVTCPICLELLTEPLSLHCGHSFCQACITANHKKSMLYKEGERSCPVCRISYQPENIQPNRHVANIVEKLREVKLSPEEGQKVDHCARHGEKLLLFCQEDSKVICWLCERSQEHRGHHTFLMEEVAQEYHVKLQTALEMLRQKQQEAEKLEADIREEKASWKIQIDYDKTNVSADFEQLREILDWEESNELQNLEKEEEDILKSLTKSETEMVQQTQYMRELISELEHRLQGSMMDLLQGVDGIIKRIENMTLKKPKTFHKNQRRVFRAPDLKGMLDMFRELTDARRYWVDVTLAPNNISHAVIAEDKRQVSSRNPQIMYGARGTRFTFQTFVNFNYCTGVLGSQSITSGKHYWEVDVSKKSAWILGVCAGFQSDAMYNIEQNENYQPKYGYWVIGLQEGVKYSVFQDGSSHTPFAPFIVPLSVIICPDRVGVFVDYEACTVSFFNITNHGFLIYKFSQCSFSKPVFPYLNPRKCTVPMTLCSPSS [rhesus TRIM5α, 332-344 = GARGTRFTFQTFV]”: 1.11 ± 0.66; “MASGILLNVKEEVTCPICLELLTEPLSLHCGHSFCQACITANHKKSMLYKEGERSCPVCRISYQPENIQPNRHVANIVEKLREVKLSPEEGQKVDHCARHGEKLLLFCQEDSKVICWLCERSQEHRGHHTFLMEEVAQEYHVKLQTALEMLRQKQQEAEKLEADIREEKASWKIQIDYDKTNVSADFEQLREILDWEESNELQNLEKEEEDILKSLTKSETEMVQQTQYMRELISELEHRLQGSMMDLLQGVDGIIKRIENMTLKKPKTFHKNQRRVFRAPDLKGMLDMFRELTDARRYWVDVTLAPNNISHAVIAEDKRQVSSRNPQIMYGARGTRFTFQTLTNFNYCTGVLGSQSITSGKHYWEVDVSKKSAWILGVCAGFQSDAMYNIEQNENYQPKYGYWVIGLQEGVKYSVFQDGSSHTPFAPFIVPLSVIICPDRVGVFVDYEACTVSFFNITNHGFLIYKFSQCSFSKPVFPYLNPRKCTVPMTLCSPSS [rhesus TRIM5α, 332-344 = GARGTRFTFQTLT]”: 1.76 ± 0.12. Regarding “MASGILLNVKEEVTCPICLELLTEPLSLHCGHSFCQACITANHKKSMLYKEGERSCPVCRISYQPENIQPNRHVANIVEKLREVKLSPEEGQKVDHCARHGEKLLLFCQEDSKVICWLCERSQEHRGHHTFLMEEVAQEYHVKLQTALEMLRQKQQEAEKLEADIREEKASWKIQIDYDKTNVSADFEQLREILDWEESNELQNLEKEEEDILKSLTKSETEMVQQTQYMRELISELEHRLQGSMMDLLQGVDGIIKRIENMTLKKPKTFHKNQRRVFRAPDLKGMLDMFRELTDARRYWVDVTLAPNNISHAVIAEDKRQVSSRNPQIMYGARGTRFTFQTLVNFNYCTGVLGSQSITSGKHYWEVDVSKKSAWILGVCAGFQSDAMYNIEQNENYQPKYGYWVIGLQEGVKYSVFQDGSSHTPFAPFIVPLSVIICPDRVGVFVDYEACTVSFFNITNHGFLIYKFSQCSFSKPVFPYLNPRKCTVPMTLCSPSS [rhesus TRIM5α, 332-344 = GARGTRFTFQTLV]”, the enrichment was determined as 1.07 ± 0.46.

For the sequence “MASGILLNVKEEVTCPICLELLTEPLSLHCGHSFCQACITANHKKSMLYKEGERSCPVCRISYQPENIQPNRHVANIVEKLREVKLSPEEGQKVDHCARHGEKLLLFCQEDSKVICWLCERSQEHRGHHTFLMEEVAQEYHVKLQTALEMLRQKQQEAEKLEADIREEKASWKIQIDYDKTNVSADFEQLREILDWEESNELQNLEKEEEDILKSLTKSETEMVQQTQYMRELISELEHRLQGSMMDLLQGVDGIIKRIENMTLKKPKTFHKNQRRVFRAPDLKGMLDMFRELTDARRYWVDVTLAPNNISHAVIAEDKRQVSSRNPQIMYGARGTRYPSLTNFNYCTGVLGSQSITSGKHYWEVDVSKKSAWILGVCAGFQSDAMYNIEQNENYQPKYGYWVIGLQEGVKYSVFQDGSSHTPFAPFIVPLSVIICPDRVGVFVDYEACTVSFFNITNHGFLIYKFSQCSFSKPVFPYLNPRKCTVPMTLCSPSS [rhesus TRIM5α, 332-344 = GARGTRYPSLT]”, the enrichment is 1.81 ± 1.4. For “MASGILLNVKEEVTCPICLELLTEPLSLHCGHSFCQACITANHKKSMLYKEGERSCPVCRISYQPENIQPNRHVANIVEKLREVKLSPEEGQKVDHCARHGEKLLLFCQEDSKVICWLCERSQEHRGHHTFLMEEVAQEYHVKLQTALEMLRQKQQEAEKLEADIREEKASWKIQIDYDKTNVSADFEQLREILDWEESNELQNLEKEEEDILKSLTKSETEMVQQTQYMRELISELEHRLQGSMMDLLQGVDGIIKRIENMTLKKPKTFHKNQRRVFRAPDLKGMLDMFRELTDARRYWVDVTLAPNNISHAVIAEDKRQVSSRNPQIMYGARGTRYQSLTNFNYCTGVLGSQSITSGKHYWEVDVSKKSAWILGVCAGFQSDAMYNIEQNENYQPKYGYWVIGLQEGVKYSVFQDGSSHTPFAPFIVPLSVIICPDRVGVFVDYEACTVSFFNITNHGFLIYKFSQCSFSKPVFPYLNPRKCTVPMTLCSPSS [rhesus TRIM5α, 332-344 = GARGTRYQSLT]”, the enrichment was 0.316 ± 0.095.

On to “MASGILLNVKEEVTCPICLELLTEPLSLHCGHSFCQACITANHKKSMLYKEGERSCPVCRISYQPENIQPNRHVANIVEKLREVKLSPEEGQKVDHCARHGEKLLLFCQEDSKVICWLCERSQEHRGHHTFLMEEVAQEYHVKLQTALEMLRQKQQEAEKLEADIREEKASWKIQIDYDKTNVSADFEQLREILDWEESNELQNLEKEEEDILKSLTKSETEMVQQTQYMRELISELEHRLQGSMMDLLQGVDGIIKRIENMTLKKPKTFHKNQRRVFRAPDLKGMLDMFRELTDARRYWVDVTLAPNNISHAVIAEDKRQVSSRNPQIMYGARGTRYTFPSFTNFNYCTGVLGSQSITSGKHYWEVDVSKKSAWILGVCAGFQSDAMYNIEQNENYQPKYGYWVIGLQEGVKYSVFQDGSSHTPFAPFIVPLSVIICPDRVGVFVDYEACTVSFFNITNHGFLIYKFSQCSFSKPVFPYLNPRKCTVPMTLCSPSS [rhesus TRIM5α, 332-344 = GARGTRYTFPSFT]”, for which the enrichment stood at 1.14 ± 0.34.
